According to publication PMC12136788:
The other results are listed elsewhere or left out.

B1: chr2:130640030:130640031:-_ENSMUSG00000027309_ENSMUST00000044766|mus_mus|FALSE|FALSE (ssRNA)
RNA: GGGAGUUCUACAGUCCGACGAUCAUAGCGGUAGUUGACGGGAUUACAGUACAGAUGGACACUAUCUGAUUUAAUCAAUAAAAUCACGUCAUCUAGAAUUUCUUCAGAAAAUCCCGUUUUCUCAAAAUCAGUGGCAUUCUGACUCAACAGAGGAUUGAGCAUCA
B2: chr7:141450121:141450122:+_ENSG00000106028_ENST00000265304|hu_mus|hu_hu_hu_mus_True|28_38 (ssRNA)
RNA: GGGAGUUCUACAGUCCGACGAUCUCAUCCGUUCUAUGCCUUUUCUUUUGUCUGGUCACUCAGAAAUAUAAUGUUAUCAGCUAUGAUUGUUGUUGCUUGUCGCCUCACAUUAUUUUUAUCCAUGUACUCGCCAUAGUCCACUUUCAACAGAGGAUUGAGCAUCA
B3: chr2:198351390:198351391:-_ENSG00000144381_ENST00000345042|hu_hu|hu_hu_hu_mus_False|28_68 (ssRNA)
RNA: GGGAGUUCUACAGUCCGACGAUCUCAUUCCCACCCUCCACAGAAAGGCUGCUUCUGAACUCUCAUGGUGGUGGCAAGCGCUACAGUCCUGAUGCUCACAGAACAGUAGUAAAAAUGCAGUGAUUUAAGUUGAAAGCAGGACACCAACAGAGGAUUGAGCAUCA
B4: chr3:10015032:10015033:+_ENSMUSG00000027533_ENSMUST00000029046|mus_mus|mus_mus_mus_hu_True|1_108 (ssRNA)
RNA: GGGAGUUCUACAGUCCGACGAUCGUUGUUGCCAUCACAAGUGAUGAUACAAUCUGGCUUGGCCAUUGCGCCCAUUUUUCGCAAAGCUAUUCCCACUCCUAGCUCCUUCAUGUAUUCAUCAAAGCCUUUGCUGUCCAUCAGGCGCAACAGAGGAUUGAGCAUCA
B5: chr19:41288841:41288842:-_ENSMUSG00000025016_ENSMUST00000025989|mus_hu|FALSE|FALSE (ssRNA)
RNA: GGGAGUUCUACAGUCCGACGAUCUAAAUCUCAAAAUGUUUAAUAAAAACAAGUAUCUUCUCCAUUUAACACUUUGCUUUCUAACUGUACAGUAAAUUGCAUUGUAGAGAGUACACUUCUGUCUUCAAACUGUAUCUUCUUUGGCAACAGAGGAUUGAGCAUCA
B6: chr17:49043493:49043494:-_ENSG00000008294_ENST00000510283|hu_mus|motif|central (ssRNA)
RNA: GGGAGUUCUACAGUCCGACGAUCUCGAUUUGUUCAUGAUAUACUGAAAUUUCCUAUUAACACUGGUGCAGUAAACGGGCUCGCUCCUCUGUAUUGUUACCAUAGAACAGAUUGUGUAAUAUAAAGGUAACAGGGGAAAAUGCUCAACAGAGGAUUGAGCAUCA
B7: chr16:45737064:45737065:-_ENSMUSG00000033157_ENSMUST00000066983|mus_mus|FALSE|FALSE (ssRNA)
RNA: GGGAGUUCUACAGUCCGACGAUCAAGUGCAUGAUAUUGUGUCACCAAUCCAUCUGCAGCAGUAGCUAUACCAAUAAGAGCUAUGACUUUUUCCGGCCGUGCAAUUGCAGCAUGCAGCAUGAGCCAUCCACCAAGACUGGAUCCCAACAGAGGAUUGAGCAUCA
B8: chr17:38574076:38574077:-_ENSG00000131747_ENST00000423485|hu_mus|FALSE|FALSE (ssRNA)
RNA: GGGAGUUCUACAGUCCGACGAUCAGCGGUGACAACUCCAUGGUGACGGUCCUGAAGAGGCUCGAGAAUCCGGAAAGCGACAAAACCAGCGGGAAACGCUAGGCGACCCGCGACGCGCGACGCGGGACCUGGACGCUCCCCUCACAACAGAGGAUUGAGCAUCA
B9: chr10:126434673:126434674:+_ENSMUSG00000078429_ENSMUST00000105256|mus_hu|FALSE|FALSE (ssRNA)
RNA: GGGAGUUCUACAGUCCGACGAUCUUUUAAAGCAUUCACUAUUAAGAACCUUUGAAAGCAGGAGACACCCAGAGUGCAGGUCUGAGGGGCUCACUCACUCCUGUUACCAGAGGCAGAAAGCAUGCGCAUUAGGCUGGCAAAUGGCAACAGAGGAUUGAGCAUCA
B10: 76675824_76675944_9205_3pUTR_ENSG00000089916_ENST00000261530|human|control|control (ssRNA)
RNA: GGGAGUUCUACAGUCCGACGAUCAGCCCCUUUUGGGCACAGGCCCCCUUACCAGUCCAAGACCCGGAAGAGGAGAAAGCAGAAGAGGGAACACAGUCCAGGCCAUCUUUUCAUAAAUAGCAACUCAUAAGUAAACAGGAGUGACAACAGAGGAUUGAGCAUCA
B11: chr7:54825262:54825263:-_ENSG00000132432_ENST00000352861|hu_hu|hu_hu_hu_mus_False|58_68 (ssRNA)
RNA: GGGAGUUCUACAGUCCGACGAUCCUGCCGGCUGGGCUCCACAAACUGCAUUACCUGAUCCAUGUUUUACCCAACCGACACCUAAAACGUAGAGACACGUAGCUCAGGAGAGAACCGAGCCCAACGGAACCGGAAGCUGGCAACCAACAGAGGAUUGAGCAUCA
B12: chr22:19452774:19452775:-_ENSG00000070010_ENST00000399523|hu_hu|hu_hu_hu_mus_False|8_48 (ssRNA)
RNA: GGGAGUUCUACAGUCCGACGAUCCUUCUCAUUGUAGUUGAUAGCAAUCACAUCUCCAGUCGUCAGACAGGCGAAGUUUCUCAAUGCGUUUUCUAAUACCGCUUUAGGGUUGGUAAUAUCCAGGAAGUCAGGGCUCUGAGGCUGCAACAGAGGAUUGAGCAUCA
B13: chr1:117910967:117910968:+_ENSG00000198162_ENST00000356554|hu_mus|motif|central (ssRNA)
RNA: GGGAGUUCUACAGUCCGACGAUCUUUUGAAGAGUCUGGAAGGAAGAAGAAUGCCCCAAAACACAGGGUGAUGAAGGCACGGAGGAUGAGGAGAAGGAUAAACUUCUCGGAGAGUCUCAAGGUAGCCCUGUGAUGUGGGAAGGACAACAGAGGAUUGAGCAUCA
B14: chr19:47656230:47656231:+_ENSG00000142230_ENST00000270225|hu_hu|motif|central (ssRNA)
RNA: GGGAGUUCUACAGUCCGACGAUCUAGAUUGGCAAAUGUGUAUCCAUGGUAGCCAAAAACAUCUCCUGUAAAGAACUUGAUGCGGUUUUUGUGACAGAUCUGGUCAACUUUAACUAUGACAUCCCUGGAGCAGCAAGUCAGACACAACAGAGGAUUGAGCAUCA
B15: chr2:47387770:47387771:-_ENSG00000143933_ENST00000272298|hu_mus|hu_hu_hu_mus_True|28_28 (ssRNA)
RNA: GGGAGUUCUACAGUCCGACGAUCAAGGUUUAAGGACAAUGACAGUAAGAUAAGGGAAGAAAACAUGGAGGAAUGAAGUCCUAAUUACUAUACAUGCAUAUUUUUUGGACAGUAGGGGGGGGAACCUUUUACAGAUAAGUUACACAACAGAGGAUUGAGCAUCA
B16: chr7:75932113:75932114:+_ENSG00000106211_ENST00000248553|hu_hu|hu_hu_hu_mus_False|18_58 (ssRNA)
RNA: GGGAGUUCUACAGUCCGACGAUCCUGCGACCACUCAUCGGGCAACCGGGGCACCCCGAAAGCUUGAUCGAAGAGGCGGCUAUGCGGAGGGUACCAGUCCCGGAAUGGUUCCCAGCUGCCCCGCAGGAGCAGCGAGAAGGGCACCAACAGAGGAUUGAGCAUCA
B17: chr1:39494447:39494448:+_ENSG00000168653_ENST00000372967|hu_mus|hu_hu_hu_mus_False|1_1 (ssRNA)
RNA: GGGAGUUCUACAGUCCGACGAUCGCACCGAGCGGCGUUCUUAUAGGGCUGUUCUGCGCUUAGGAACAUAAAGUGCCGGUCCAGGCUGAUGCCCAGCUUUUUCUGUAUGUCAAGGAAAGGCAUGGCUCUGCAGUGCCCCCUUGACAACAGAGGAUUGAGCAUCA
B18: chr6:41757443:41757444:+_ENSG00000214736_ENST00000398881|hu_mus|hu_hu_hu_mus_False|18_18 (ssRNA)
RNA: GGGAGUUCUACAGUCCGACGAUCGAACCGUGCAGAGGCAACAUCUCAGCCGACACUGGGGGAUGGGGGGGCAGUGGGGGGGGGUUCAGGCAAGGAGAGGGAGUCAACUUCAGCUGCUCAAACUUCAGGAUCUUGUGGUCACAGCAACAGAGGAUUGAGCAUCA
B19: chr17:56573269:56573270:-_ENSG00000108389_ENST00000323456|hu_mus|FALSE|FALSE (ssRNA)
RNA: GGGAGUUCUACAGUCCGACGAUCGAGUGAGCUGACAGCUUCCUUCUCUAGAAACUGUUCAGGUGGCUUCCCUAAGCCAUCAGAAGUCCUACCCUGCUCCUCUUGGGCUGAAGGGUCCGGGGCCAGUGCUUCAGUUUCUUCCAGCAACAGAGGAUUGAGCAUCA
B20: chr13:3599227:3599228:-_ENSMUSG00000033799_ENSMUST00000096069|mus_mus|FALSE|FALSE (ssRNA)
RNA: GGGAGUUCUACAGUCCGACGAUCUCAAGUAUGAUUUUAGAAGUGGGUGCUGCCAUCUUUUAGGAUCCUUGUGCUGAAAAGCUACAAUUAUAUAAGGACAGGUCUGUCUGGGUCAUUUAAUAACAGUGUUGCCUGAAAGUUCAUCAACAGAGGAUUGAGCAUCA
B21: chr2:198351390:198351391:-_ENSG00000144381_ENST00000345042|hu_hu|hu_hu_hu_mus_False|8_48 (ssRNA)
RNA: GGGAGUUCUACAGUCCGACGAUCUCAUUCCCACCCUCCACAGAAAGGCUGCUUCUGAACUCUCAUGUGGUGACACAGCGCUACAGUCCUGAUUUUAACAGAACAGUAGAGAUGCCUCAGUGAUUUAUUAAGUUGAAAGGACACCAACAGAGGAUUGAGCAUCA
B22: chr17:64801638:64801639:+_ENSG00000154229_ENST00000413366|hu_mus|hu_hu_hu_mus_False|8_28 (ssRNA)
RNA: GGGAGUUCUACAGUCCGACGAUCUAUAUAUAUAUAUACAUAUGUACACAUAUAUAGUAAAACCCUAGUUAAACGUGUAAAGUAGCCAUUCAUUUUUAAAAUUACAUCUACAUUUAAAAAUUAAUAUAUCUGAUACAGUGCCAGCAACAGAGGAUUGAGCAUCA

molecular target: T1, UNK ZnF1-3 (human, UniProt Q9C0B0 31-174); test: nsRBNS (natural sequence RNA bind-n-seq); RBNS binding buffer (assumed for nsRBNS): 25 mM Tris pH 7.5, 150 mM KCl, 3 mM MgCl2, 0.01% Triton X-100, 500 ug/ml BSA, 20 U/ml SUPERase-In, 4 C; UNK is unkempt and MSI1 is Musashi-1; names of the RNAs are library labels; protein concentration not given here; high values mean tight binding
T1 sequence: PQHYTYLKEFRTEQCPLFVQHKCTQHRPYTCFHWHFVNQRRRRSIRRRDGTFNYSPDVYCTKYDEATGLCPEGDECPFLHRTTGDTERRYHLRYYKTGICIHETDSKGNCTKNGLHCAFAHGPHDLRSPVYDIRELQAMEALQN

Row | Binder | binding signal [enrichment R]
1 | B1 | 0.589
2 | B2 | 0.403
3 | B3 | 1.46
4 | B4 | 0.733
5 | B5 | 0.35
6 | B6 | 1.02
7 | B7 | 1.25
8 | B8 | 0.976
9 | B9 | 1.41
10 | B10 | 2.65
11 | B11 | 0.732
12 | B12 | 0.775
13 | B13 | 1.82
14 | B14 | 0.984
15 | B15 | 1.66
16 | B16 | 0.886
17 | B17 | 0.775
18 | B18 | 3.1
19 | B19 | 0.851
20 | B20 | 1.34
21 | B21 | 1.47
22 | B22 | 1.18
